The other results are listed elsewhere or left out. Sequences were assembled here from the parent chain. Inactive controls read about 0.05.
B1: TEV protease; numbered along this chain (parent)
chain: MGESLFKGPRDYNPISSSICHLTNESDGHTTSLYGIGFGPFIITNKHLFRRNNGTLVVQSLHGVFKVKDTTTLQQHLVDGRDMIIIRMPKDFPPFPQKLKFREPQREERICLVTTNFQTKSMSSMVSDTSCTFPSGDGIFWKHWIQTKDGQCGSPLVSTRDGFIVGIHSASNFTNTNNYFTSVPKNFMELLTNQEAQQWVSGWRLNADSVLWGGHKVFMVKPEEPFQPVKEATQL

Variants of: B1
Experiment: raw area under fraction-flipped curve 0-4 h after induction (AUC4h, not background-subtracted), DNA-recorder readout of cleavage of the substrate (dimensionless); higher = more cleavage of the substrate by the protease variant
Conditions: temperature: 34 °C; time window: 0-4 h after rhamnose induction
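Further: Bxb1 expression induced with 0.2% (w/v) L-rhamnose at OD600 near 0.5, cultures sampled hourly, flipped fraction per protease–substrate barcode pair counted by paired-end Illumina sequencing.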

| Variant | area with substrate ENLYFQK | area with substrate ENLYFQL | area with substrate ENLYFQR | area with substrate ENLYFQS | area with substrate ENLYFQV | area with substrate ENLYFQW | area with substrate ENLYFQY | area with substrate ENLYFQM | area with substrate ENLYFQN | area with substrate ENLYFQT |
| --- | --- | --- | --- | --- | --- | --- | --- | --- | --- | --- |
| MGESLFKGPRDYNPISSSICHLTNESDGHTTSLYGIGFGPFIITNKHLFRRNNGTLVVQSLHGVFKVKDTTTLQQHLVDGRDMIIIRMPKDFPPFPQKLKFREPQREERICLVTTNFQTKSMSSMVSDTSCTFPSGDGIFWKHWIQTKDGQCGSPLVSTRDGFIVGIHSASNFTNTNNYFTSVPKNFHELLTNQEAQQWVSGWRLNADSVLWGGHKVFMVKPEEPFQPVKEATQL [M188H] | 0.0516 | 0.0592 | 0.0553 | 0.105 | 0.0498 | 0.0418 | 0.0918 | – | – | – |
| MGESLFKGPRDYNPISSSICHLTNESDGHTTSLYGIGFGPFIITNKHLFRRNNGTLVVQSLHGVFKVKDTTTLQQHLVDGRDMIIIRMPKDFPPFPQKLKFREPQREERICLVTTNFQTKSMSSMVSDTSCTFPSGDGIFWKHWIQTKDGQCGSPLVSTRDGFIVGIHSASNFTNTNNYFTSVPKNFMELLTNQEAQQWVSGWRLMADSVLWGGHKVFMVKPEEPFQPVKEATQL [N206M] | – | – | – | 0.104 | – | – | – | 0.0897 | 0.0837 | 0.0693 |
| MGESLFKGPRDYNPISSSICHLTNESDGHTTSLYGIGFGPFIITNKHLFRRNNGTLVVQSLHGVFKVKDTTTLQQHLVDGRDMIIIRMPKDFPPFPQKLKFREPQREERICLVTTNFQTKSMSSMVSDTSCTFPSGDGIFWKHWIQTKDGQCGSPLVSTRDGFIVGIHSASNKTNTNNYFTSVPKNFMELLTNQEAQQWVSGWRLNADSVLWGGHKVFMVKPEEPFQPVKEATQL [F173K] | – | – | – | 0.107 | – | – | – | – | – | – |
| MGESLFKGPRDYNPISSSICHLTNESDGHTTSLYGIGFGPFIITNKHLFRRNNGTLVVQSLHGVFKVKDTTTLQQHLVDGRDMIIIRMPKDFPPFPQKLKFREPQREERICLVTTNFQTKSMSSMVSDTSCTFPSGDGIFWKHWIQTKDGQCGSPLVSTRDGFIVGIHSASNFTNTNNYFTSVPKNFMELLTNQEAQQWVSGWRLNADTVLWGGHKVFMVKPEEPFQPVKEATQL [S209T] | – | – | – | 0.117 | – | – | – | – | – | 0.0696 |
| MGESLFKGPRDYNPISSSICHLTNESDGHTTSLYGIGFGPFIITNKHLFRRNNGTLVVQSLHGVFKVKDTTTLQQHLQDGRDMIIIRMPKDFPPFPQKLKFREPQREERICLVTTNFQTKSMSSMVSDTSCTFPSGDGIFWKHWIQTKDGQCGSPLVSTRDGFIVGIHSASNFTNTNNYFTSVPKNFMELLTNQEAQQWVSGWRLNADSVLWGGHKVFMVKPEEPFQPVKEATQL [V78Q] | – | – | – | 0.0714 | – | – | – | – | 0.0565 | – |
| MGESLFKGPRDYNPISSSICHLTNESDGHTTSLYGIGFGPFIITNKHLFRRNNGTLVVQSLHGVFKVKDTTTLQQHLVDGRDMIIIRMPKDFPPFPQKLKFREPQREERICLVTTNFQTKSMSSMVSDTSCTFPSGDGIFWKHWIQTKDGQCGSPLVTTRDGFIVGIHSASNFTNTNNYFTSVPKNFMELLTNQEAQQWVSGWRLNADSVLWGGHKVFMVKPEEPFQPVKEATQL [S158T] | – | – | – | 0.101 | – | – | – | – | 0.0682 | – |
| MGESLFCGPRDYNPISSSICHLTNESDGHTTSLYGIGFGPFIITNKHLFRRNNGTLVVQSLHGVFKVKDTTTLQQHLVDGRDMIIIRMPKDFPPFPQKLKFREPQREERICLVTTNFQTKSMSSMVSDTSCTFPSGDGIFWKHWIQTKDGQCGSPLVSTRDGFIVGIHSASNFTNTNNYFTSVPKNFMELLTNQEAQQWVSGWRLNADSVLWGGHKVFMVKPEEPFQPVKEATQL [K7C] | – | 0.0637 | 0.0507 | 0.0936 | – | – | – | – | 0.0652 | – |
| MGESLFKGPRDYNPISSSICHLTNESDGHTTSLYGIGFGPFIITNKHLFRRNNGTLVVQSLHGVFKVKDTTTLQQHLVDGRDMIIIRMPKDFPPFPQKLKFREPQREERICLVTTNFQTKSMSSMVSDTSCTFPSGDGIFWKHWIQTKDGQCGSPLVSTRDGFIVGIHSASNFTNTNNYFTSVPKNFMELLTNQEAQQWVSGWRLNADSVLWGHHKVFMVKPEEPFQPVKEATQL [G214H] | – | 0.0452 | 0.0582 | 0.0939 | 0.0458 | – | 0.0505 | – | 0.0664 | – |
| MGESLFKGPRDYNPISSSICHLTNESDGHTTSLYGIGFGPFIITNKHLFRRNNGTLVVQSLHGVFKVKDTTTLQQHLVDGRDMIIIRMPKDFPPFPQKLKFREPQREERICLVTTNFQTKSMSSMVSDTSCTFPSGDGIFWKHWIQTKDGQCGSPLVSTRDGFIVGIHSDSNFTNTNNYFTSVPKNFMELLTNQEAQQWVSGWRLNADSVLWGGHKVFMVKPEEPFQPVKEATQL [A170D] | 0.0648 | – | 0.0556 | 0.0577 | – | – | – | 0.0626 | – | – |
| MGESLFKGPRDYNPISSSICHLTNESDGHTTSLYGIGFGPFIITNKHLFRRNNGTLVVQSLHGVFKVKDTTTLQQHLVDGRDMIIIEMPKDFPPFPQKLKFREPQREERICLVTTNFQTKSMSSMVSDTSCTFPSGDGIFWKHWIQTKDGQCGSPLVSTRDGFIVGIHSASNFTNTNNYFTSVPKNFMELLTNQEAQQWVSGWRLNADSVLWGGHKVFMVKPEEPFQPVKEATQL [R87E] | – | 0.0737 | 0.0563 | 0.105 | – | – | – | – | 0.0852 | 0.07 |
| MGESLFKGPRDYNPISSSICHLTNESDGHTTSLYGIGFGPFIITNKHLFRRNNGTLVVQSLHGVFKVKDTTTLQQHLVDGRDMIIIRMPKDFPPFPQKLKFREPQREERWCLVTTNFQTKSMSSMVSDTSCTFPSGDGIFWKHWIQTKDGQCGSPLVSTRDGFIVGIHSASNFTNTNNYFTSVPKNFMELLTNQEAQQWVSGWRLNADSVLWGGHKVFMVKPEEPFQPVKEATQL [I110W] | 0.052 | 0.0471 | – | 0.0552 | 0.0609 | – | 0.0376 | 0.0573 | – | – |
| MGESLFKGPRDYNPISSSICHLTNESDGHTTSLYGIGFGPFIITNKHLFRRNNGTLVVQSLHGVFKVKDTTTLQQHLVDGRDMIIIRMPKDFPPFPQKLKFREPQREERICLVTTNFQTKSMSSMVSDTSCTFPSGDGIFWKHWIQTKDGQCGSPLVSTRDGFIVGIHSASNFTNTNNYFTSVPKNFMELLTNQEAQQWVSGWRLNADSALWGGHKVFMVKPEEPFQPVKEATQL [V210A] | – | 0.0478 | – | 0.105 | – | 0.0652 | – | – | – | – |

Same assay, conditions: temperature: 34 °C; time window: 0-4 h after rhamnose induction

| Variant | area with substrate ENLYFQI | area with substrate ENLYFQH | area with substrate ENLYFQP | area with substrate ENLYFQQ |
| --- | --- | --- | --- | --- |
| MGESLFKGPRDYNPISSSICHLTNESDGHTTSLYGIGFGPFIITNKHLFRRNNGTLVVQSLHGVFKVKDTTTLQQHLVDGRDMIIIRMPKDFPPFPQKLKFREPQREERICLVTTNFQTKSMSSMVSDTSCTFPSGDGIFWKHWIQTKDGQCGSPLVSTRDGFIVGIHSASNKTNTNNYFTSVPKNFMELLTNQEAQQWVSGWRLNADSVLWGGHKVFMVKPEEPFQPVKEATQL [F173K] | 0.0501 | – | – | – |
| MGESLFKGPRDYNPISSSICHLTNESDGHTTSLYGIGFGPFIITNKHLFRRNNGTLVVQSLHGVFKVKDTTTLQQHLVDGRDMIIIRMPKDFPPFPQKLKFREPQREERICLVTTNFQTKSMSSMVSDTSCTFPSGDGIFWKHWIQTKDGQCGSPLVSTRDGFIVGIHSASNFTNTNNYFTSVPKNFMELLTNQEAQQWVSGWRLNADTVLWGGHKVFMVKPEEPFQPVKEATQL [S209T] | 0.0623 | 0.0831 | – | – |
| MGESLFKGPRDYNPISSSICHLTNESDGHTTSLYGIGFGPFIITNKHLFRRNNGTLVVQSLHGVFKVKDTTTLQQHLQDGRDMIIIRMPKDFPPFPQKLKFREPQREERICLVTTNFQTKSMSSMVSDTSCTFPSGDGIFWKHWIQTKDGQCGSPLVSTRDGFIVGIHSASNFTNTNNYFTSVPKNFMELLTNQEAQQWVSGWRLNADSVLWGGHKVFMVKPEEPFQPVKEATQL [V78Q] | – | – | 0.0533 | – |
| MGESLFKGPRDYNPISSSICHLTNESDGHTTSLYGIGFGPFIITNKHLFRRNNGTLVVQSLHGVFKVKDTTTLQQHLVDGRDMIIIRMPKDFPPFPQKLKFREPQREERICLVTTNFQTKSMSSMVSDTSCTFPSGDGIFWKHWIQTKDGQCGSPLVTTRDGFIVGIHSASNFTNTNNYFTSVPKNFMELLTNQEAQQWVSGWRLNADSVLWGGHKVFMVKPEEPFQPVKEATQL [S158T] | 0.0561 | – | 0.0706 | – |
| MGESLFCGPRDYNPISSSICHLTNESDGHTTSLYGIGFGPFIITNKHLFRRNNGTLVVQSLHGVFKVKDTTTLQQHLVDGRDMIIIRMPKDFPPFPQKLKFREPQREERICLVTTNFQTKSMSSMVSDTSCTFPSGDGIFWKHWIQTKDGQCGSPLVSTRDGFIVGIHSASNFTNTNNYFTSVPKNFMELLTNQEAQQWVSGWRLNADSVLWGGHKVFMVKPEEPFQPVKEATQL [K7C] | 0.0644 | – | – | 0.0958 |
| MGESLFKGPRDYNPISSSICHLTNESDGHTTSLYGIGFGPFIITNKHLFRRNNGTLVVQSLHGVFKVKDTTTLQQHLVDGRDMIIIRMPKDFPPFPQKLKFREPQREERICLVTTNFQTKSMSSMVSDTSCTFPSGDGIFWKHWIQTKDGQCGSPLVSTRDGFIVGIHSDSNFTNTNNYFTSVPKNFMELLTNQEAQQWVSGWRLNADSVLWGGHKVFMVKPEEPFQPVKEATQL [A170D] | – | – | – | 0.0642 |
| MGESLFKGPRDYNPISSSICHLTNESDGHTTSLYGIGFGPFIITNKHLFRRNNGTLVVQSLHGVFKVKDTTTLQQHLVDGRDMIIIEMPKDFPPFPQKLKFREPQREERICLVTTNFQTKSMSSMVSDTSCTFPSGDGIFWKHWIQTKDGQCGSPLVSTRDGFIVGIHSASNFTNTNNYFTSVPKNFMELLTNQEAQQWVSGWRLNADSVLWGGHKVFMVKPEEPFQPVKEATQL [R87E] | 0.0408 | – | – | – |
| MGESLFKGPRDYNPISSSICHLTNESDGHTTSLYGIGFGPFIITNKHLFRRNNGTLVVQSLHGVFKVKDTTTLQQHLVDGRDMIIIRMPKDFPPFPQKLKFREPQREERICLVTTNFQTKSMSSMVSDTSCTFPSGDGIFWKHWIQTKDGQCGSPLVSTRDGFIVGIHSASNFTNTNNYFTSVPKNFMELLTNQEAQQWVSGWRLNADSALWGGHKVFMVKPEEPFQPVKEATQL [V210A] | – | – | 0.0522 | – |

From the supplement of paper PMC12217912
